Measured values as given in PubChem BioAssay AID504832 (National Center for Advancing Translational Sciences (NCATS), 2011).
The campaign covered roughly 310,000 compounds. About 18,000 (5.8%) were called active. The shares of active, inactive and inconclusive entries below differ from those in the screen. Calls come from the whole dose curve; as a rule, active = well fitted inhibition curve with a large enough effect; inconclusive = small, poorly fitted or top-dose-only effect, or another doubt; inactive = no such curve, though single readings can be large or run the other way. Potencies of inconclusive entries are left out as doubtful fits.

Assay: Primary qHTS for delayed death inhibitors of the malarial parasite plastid, 48 hour incubation
Conditions: P. falciparum luciferase growth in erythrocytes; series mostly up to 28.7 µM
In short: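 Luciferase-expressing parasites in RBCs, 2% Hct / 0.1% parasitemia final; RPMI 1640 + 0.5% Albumax; 37 C, 5% CO2, one generation; luminescence read-out, lower signal = inhibition.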
Potency is the fitted concentration of half-maximal effect; tags give direction and shape of the fitted curve.

Q: For COc1cc(CN(C)Cc2cccc3ccccc23)cc([N+](=O)[O-])c1O, which Potency is on record?
A: Its Potency is “inactive”.

Q: For Cc1c(C)c2c(OCC(=O)NC3CC3)cc3c(c2oc1=O)CCC(C)(C)O3, which Potency is on record?
A: Its Potency is inconclusive [inhibitor, single point].

Q: For COc1ccc(CCn2c(N3CCN(Cc4ccccc4)CC3)nc3c2c(=O)[nH]c(=O)n3C)cc1, which Potency is on record?
A: The Potency was inconclusive [inhibitor, partial curve, poor fit].

Q: For COc1ccc(CNc2nc3ccccc3n2C(C)C)cc1, which Potency is on record?
A: The Potency was “inactive”.

Q: With CSCCC(NC(=O)c1ccco1)C(=O)N(C)CC(=O)Nc1ccccc1Br (stereo not given) as the compound, how does the Potency read?
A: The Potency was inconclusive [inhibitor, single point].

Q: With O=C(NCC1CCCN1S(=O)(=O)c1cccs1)c1ccc(F)c(F)c1 (stereo not given) as the compound, how does the Potency read?
A: The Potency was “inactive”.

Q: For Cc1ccc(S(=O)(=O)N2CCOC2CNC(=O)C(=O)NCCc2c[nH]c3ccccc23)cc1 (stereo not given), which Potency is on record?
A: Its Potency is “inactive”.

Q: With CC(C)CN(C(=O)COC(=O)c1ccccc1SCC(=O)NC1CCCCCC1)C1CCS(=O)(=O)C1 (stereo not given) as the compound, how does the Potency read?
A: The Potency was inconclusive [inhibitor, partial curve, poor fit].

Q: For O=C(c1nc2ccccn2c1CNCCCn1ncc2ccccc21)N1CCCC1, which Potency is on record?
A: Its Potency is inconclusive [inhibitor, single point].

Q: Which Potency does the source give for Cc1ccc2[nH]c(=O)c(CN(c3cccc(C)c3C)S(=O)(=O)c3ccccc3)cc2c1 here?
A: The Potency was inconclusive [inhibitor, single point].

Q: For COc1cccc(-n2c(SCC(=O)NC3CCS(=O)(=O)C3)nc3ccccc3c2=O)c1 (stereo not given), which Potency is on record?
A: Its Potency is inconclusive [inhibitor, single point].

Q: For CN1CCN(CC(=O)Nc2sc3c(c2C(=O)Nc2ccccc2)CCCC3)CC1, which Potency is on record?
A: Its Potency is inconclusive [inhibitor, partial curve, poor fit].

Q: With O=C(NC(=S)NNC(=O)c1ccco1)c1ccc(F)cc1 as the compound, how does the Potency read?
A: Its Potency is inconclusive [inhibitor, single point].

Q: For Cn1cc(C(=O)Nc2ccc(F)c(Cl)c2)cn1, which Potency is on record?
A: Its Potency is “inactive”.

Q: With O=C(c1ccco1)N1CCN(Cc2ccc(Cl)cc2)CC1 as the compound, how does the Potency read?
A: Its Potency is inconclusive [inhibitor, partial curve, poor fit].

Q: For CN1C(=O)/C(=C/c2cccc(Cl)c2)Sc2ccc(C(=O)N3CCOCC3)cc21, which Potency is on record?
A: Its Potency is inconclusive [inhibitor, full curve, poor fit].

Q: For O=C(c1cc(-c2ccco2)nc2ccccc12)N(Cc1nnc(-c2ccc(Cl)cc2)o1)C1CC1, which Potency is on record?
A: Its Potency is active: 4.15 µM.

Q: Which Potency does the source give for Cc1cc(NC(=O)CSc2nc3c(c(=O)n2Cc2ccccc2)SC(C)C3)no1 (stereo not given) here?
A: Its Potency is active: 1.85 µM.

Q: With CCC(C)c1ccccc1NC(=O)COC(=O)C1=COCCO1 (stereo not given) as the compound, how does the Potency read?
A: Its Potency is “inactive”.

Q: With CCc1ccc(NC(=O)c2cc(S(=O)(=O)N3CCc4ccccc43)cn2C)cc1 as the compound, how does the Potency read?
A: Its Potency is inconclusive [inhibitor, partial curve, poor fit].

Q: For Cc1ccc(S(=O)(=O)N2CCN(CC(=O)NC(=O)NCc3ccco3)CC2)cc1C, which Potency is on record?
A: The Potency was inconclusive [inhibitor, partial curve, poor fit].

Q: With Cc1sc2nc(SCc3ccccc3)n(Cc3ccco3)c(=O)c2c1C as the compound, how does the Potency read?
A: Its Potency is “inactive”.

Q: Which Potency does the source give for COc1cc(/C=N/NC(=O)c2cccc3ccccc23)cc(OC)c1O here?
A: The Potency was “inactive”.

Q: Which Potency does the source give for COc1ccc(O)c(C(=O)c2cnn(-c3ccc(Cl)cc3)c2)c1 here?
A: Its Potency is inconclusive [inhibitor, single point].

Q: With CCOc1ccc(S(=O)(=O)N2CCCC(C(=O)N3CCOCC3)C2)cc1C (stereo not given) as the compound, how does the Potency read?
A: Its Potency is “inactive”.

Q: Which Potency does the source give for CCc1ccc(-n2c(SCC(=O)Nc3cccc(S(=O)(=O)NC4=NCCCCC4)c3)nc3ccccc3c2=O)cc1 here?
A: Its Potency is inconclusive [inhibitor, single point].

Q: Which Potency does the source give for Cn1nnnc1SCC(=O)NC1CCCc2ccccc21 (stereo not given) here?
A: The Potency was inconclusive [inhibitor, full curve, poor fit].

Q: With O=S(=O)(/C=C/c1ccccc1)N1CCN(c2nc(-c3cccnc3)nc3ccccc23)CC1 as the compound, how does the Potency read?
A: The Potency was inconclusive [inhibitor, partial curve, poor fit].

Q: For COc1ccc(CNC(=O)C2CC(C)=CCC2C(=O)O)cc1 (stereo not given), which Potency is on record?
A: Its Potency is “inactive”.

Q: For COc1ccc(-c2cc(C(=O)NCCN3CCOCC3)c3cc(C(C)C)ccc3n2)cc1, which Potency is on record?
A: Its Potency is inconclusive [inhibitor, partial curve].

Q: With Cc1cc(C)n(CC(=O)NNC(=O)CCCOc2ccc(Cl)c(C)c2)n1 as the compound, how does the Potency read?
A: Its Potency is “inactive”.

Q: Which Potency does the source give for CC(C)c1ccc(CN2CCN(C(=O)CSc3nnnn3C3CC3)CC2)cc1 here?
A: Its Potency is active: 7.38 µM.

Q: For CC(C)C(=O)NC(c1ccco1)c1ccc2cccnc2c1O (stereo not given), which Potency is on record?
A: The Potency was active: 2.08 µM.

Q: Which Potency does the source give for CC(C)C(=O)Nc1cccc(NC(=O)c2cccc(F)c2)c1 here?
A: Its Potency is “inactive”.

Q: With CCO[C@H]1OC(C(=O)N2CCN(Cc3ccccc3)CC2)=C[C@@H](c2coc3ccccc3c2=O)[C@@H]1CCCO as the compound, how does the Potency read?
A: The Potency was inconclusive [inhibitor, partial curve, poor fit].

Q: For COc1ccc(CCNC(=O)c2ccccc2OCc2ccccc2)cc1, which Potency is on record?
A: Its Potency is inconclusive [inhibitor, single point].

Q: Which Potency does the source give for CC(NC(=O)c1ccc(OC2CCN(C(=O)c3cccnc3)CC2)cc1)C1CC1 (stereo not given) here?
A: The Potency was “inactive”.

Q: With CC(=O)Nc1ccc(N2C(=O)CC(c3ccccc3)CC2=O)cc1 as the compound, how does the Potency read?
A: The Potency was inconclusive [inhibitor, partial curve, poor fit].

Q: Which Potency does the source give for O=[N+]([O-])c1ccc(C[n+]2cccc3ccccc32)cc1 here?
A: Its Potency is active: 10.4 µM.

Q: For Cc1cccc(OCCC(=O)Nc2ccc(N3CCOCC3)cc2N2CCOCC2)c1, which Potency is on record?
A: The Potency was inconclusive [inhibitor, single point].

Q: For COc1ccc(CCNC(=O)C2CCCN(c3nn4c(=O)cc(C)nc4s3)C2)cc1OC (stereo not given), which Potency is on record?
A: Its Potency is inconclusive [inhibitor, partial curve, poor fit].

Q: For CC[C@H](C)C(C(=O)N1CCN(C(=O)OC(C)(C)C)CC1)n1cc(C(CC(C)C)NC(=O)OC(C)(C)C)nn1 (stereo not given in full), which Potency is on record?
A: Its Potency is inconclusive [inhibitor, full curve].

Q: Which Potency does the source give for CCCCOC(=O)NS(=O)(=O)c1sc(CC(C)C)cc1-c1ccc(Cn2c(CC)nc3c(C)cc(C)nc32)cc1 here?
A: Its Potency is active: 14.7 µM.

Q: With Cc1ccc(-c2nnn3c2nc(NC(C)C)c2ccccc23)cc1 as the compound, how does the Potency read?
A: Its Potency is inconclusive [inhibitor, single point].

Q: With C/C(CC(=O)Nc1ccc(Cl)c(C(F)(F)F)c1)=N\NC(=O)c1cc2ccccc2cc1O as the compound, how does the Potency read?
A: Its Potency is inconclusive [inhibitor, partial curve].

Q: For CC(C)C(=O)c1cc2c(cc1NC(=O)c1ccccc1)OCCO2, which Potency is on record?
A: Its Potency is inconclusive [inhibitor, single point].

Q: Which Potency does the source give for CCCCCCCCn1c2c(c(=N)c3c1CCC3)CCCC2 here?
A: Its Potency is active: 0.262 µM.

Q: For CCOc1ccc(NC(=O)c2ccc(CC)s2)c([N+](=O)[O-])c1, which Potency is on record?
A: Its Potency is “inactive”.

Q: For COc1ccc2oc(C(=O)N3CCCc4ccccc43)c(C)c2c1, which Potency is on record?
A: Its Potency is inconclusive [inhibitor, single point].

Q: With CC1(C)CC(=O)c2cc(OCC(=O)N3CCN(Cc4ccccc4)CC3)ccc2O1 as the compound, how does the Potency read?
A: Its Potency is inconclusive [inhibitor, single point].

Q: For CC(C)=O, which Potency is on record?
A: Its Potency is “inactive”.

Q: With CCNC(=O)/C(C#N)=C/c1c(N2CCN(c3ccccc3)CC2)nc2c(C)cccn2c1=O as the compound, how does the Potency read?
A: The Potency was inconclusive [inhibitor, partial curve].

Q: For COc1ccc(NC(=O)c2ccco2)cc1N, which Potency is on record?
A: Its Potency is “inactive”.

Q: With COc1cc2cc(C(=O)N3CCOCC3)cc(-c3ccc(C)cc3)c2cc1OC as the compound, how does the Potency read?
A: The Potency was inconclusive [inhibitor, single point].

Q: Which Potency does the source give for CCOc1ccccc1NC(=O)C1CCCN(S(=O)(=O)c2ccc(-n3cnnn3)cc2)C1 (stereo not given) here?
A: The Potency was inconclusive [inhibitor, partial curve, poor fit].

Q: Which Potency does the source give for O=C(Nc1ccc(Cl)c(Cl)c1)N1N=CCC1c1ccccc1 (stereo not given) here?
A: Its Potency is “inactive”.

Q: With O=C(O)c1cccc2[nH]c(C(F)(F)F)nc12 as the compound, how does the Potency read?
A: The Potency was “inactive”.

Q: For COc1ccc(-c2csc(NC(=S)NC(=O)c3cccs3)n2)cc1OC, which Potency is on record?
A: The Potency was active: 11.7 µM.

Q: With CC1(C)C2CCC1(CS(=O)(=O)NCc1ccc(S(N)(=O)=O)cc1)C(=O)C2 (stereo not given) as the compound, how does the Potency read?
A: Its Potency is “inactive”.

Q: For CCN(c1ccccc1)S(=O)(=O)c1ccc(NC(=O)c2ccco2)cc1, which Potency is on record?
A: The Potency was active: 10.4 µM.

Q: With CN(C(=O)c1ccccc1F)C(c1ccccc1)c1ccccc1 as the compound, how does the Potency read?
A: Its Potency is inconclusive [inhibitor, partial curve, poor fit].

Q: Which Potency does the source give for CCOC(=O)c1ccc(NC(=O)c2cccc(C)c2[N+](=O)[O-])cc1 here?
A: The Potency was inconclusive [inhibitor, single point].

Q: With CCCNC(=O)c1ccccc1NC(=O)c1ccccc1N(C)S(C)(=O)=O as the compound, how does the Potency read?
A: The Potency was “inactive”.

Q: Which Potency does the source give for Cn1c(=O)c(C(=O)COC(=O)c2cc(-c3ccco3)nc3ccccc23)c(N)n(Cc2ccccc2)c1=O here?
A: The Potency was active: 5.22 µM.

Q: Which Potency does the source give for CCN(CC)c1ccc(/C=N/NC(=S)NCc2ccccc2)c(O)c1 here?
A: The Potency was “inactive”.

Q: With COc1ccc(C[C@](C)(N)C(=O)O)cc1OC as the compound, how does the Potency read?
A: The Potency was inconclusive [inhibitor, single point].

Q: For CCN(CC)c1ccc(CNc2nc3ccccc3n2CCN2CCCCC2)cc1, which Potency is on record?
A: Its Potency is inconclusive [inhibitor, single point].

Q: With CSCc1c(C(=O)Nc2ccccc2N2CCOCC2)oc2ccccc12 as the compound, how does the Potency read?
A: Its Potency is active: 11.7 µM.

Q: Which Potency does the source give for CC(C)(C)C1CCC2(CC1)Nc1cccc3cccc(c13)N2 here?
A: The Potency was inconclusive [inhibitor, single point].

Q: With COc1ccc(C)cc1-n1c(C)cc(C=O)c1C as the compound, how does the Potency read?
A: The Potency was inconclusive [inhibitor, single point].
